Laboratory results reported in a compilation of properties of binary mixtures (doi:10.1016/j.molliq.2017.02.011).
The densities may have been worked out from excess volumes.

Assay: xn = mol fraction of the nth substance listed
Conditions: 100 kPa

O=C1CCCCC1 + CCCC[n+]1ccn(C)c1C.F[B-](F)(F)F
x2 = 0
Conditions	mass density [kg/m3]
298.15 K	942.9
308.15 K	933.2

CCCC[n+]1ccn(C)c1C.F[B-](F)(F)F + O=C1CCCCC1
mass density [kg/m3]
Conditions	293.15 K	298.15 K	303.15 K	308.15 K
x1 = 0.0834	957.9	954.1	951.5	949.1
x1 = 0.1328	967.9	965.3	963.3	–
x1 = 0.1764	977.6	976.7	975.5	974.6
x1 = 0.2258	994.2	–	992.4	991.3
x1 = 0.2675	1009.7	1008.8	1007.6	1006.1
x1 = 0.3094	1026.1	–	1024.2	1023.3
x1 = 0.3824	1055.5	1054.3	–	1052
x1 = 0.4368	–	–	1075.6	1074.8
x1 = 0.4755	1092.4	1091.7	–	1090
x1 = 0.5276	1111.7	1110.9	1110	1109.2
x1 = 0.5649	1124.6	1123.8	1123	1122
x1 = 0.6063	1137.9	1137.1	1136.2	1135.7
x1 = 0.6451	1149.3	1148.5	–	1147.3
x1 = 0.6947	–	1161.6	1160.4	1159.6
x1 = 0.7419	1172.3	1171.8	1170.3	–
x1 = 0.7994	–	1181.4	–	–
x1 = 0.8527	1188.4	1187.7	1185.9	1185.1
x1 = 0.9134	1192.3	–	1188.9	–
x1 = 1	1193.5	1191.8	1189.7	–
